Measured values published in the supplement of paper PMC12009370.
This is one part of the list. Many values rest on one well or one pass, so single values are uncertain.

How the values were obtained:
[1] = tested on: IMR-32; assay: drug sensitivity score (DSS), single drug with vehicle (DSS (score)); higher = more cytotoxic; extreme values may be limits of the assay; conditions: 72 h; co-treatment: vehicle (DMSO)
[2] = tested on: SK-N-AS; assay: as above; conditions: 72 h; co-treatment: vehicle (DMSO)
[3] = tested on: SK-N-AS; assay: drug sensitivity score (DSS) in combination with SL-176 (DSS (score)); higher = more cytotoxic; extreme values may be limits of the assay; conditions: 72 h; co-treatment: SL-176 11.2 uM (IC25 in IMR-32)
[4] = tested on: IMR-32; assay: as above; conditions: 72 h; co-treatment: SL-176 11.2 uM (IC25 in IMR-32)
[5] = tested on: SK-N-AS; assay: drug sensitivity score (DSS) in combination with GSK2830371 (DSS (score)); neuroblastoma lines; SL-176 and GSK2830371 are WIP1 inhibitors; higher = more cytotoxic; extreme values may be limits of the assay; conditions: 72 h; co-treatment: GSK2830371 at IC25 in IMR-32
[6] = tested on: IMR-32; assay: as above; conditions: 72 h; co-treatment: GSK2830371 at IC25 in IMR-32
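For drug sensitivity score (DSS) in combination with GSK2830371 in this document: neuroblastoma cells in 384-well plates, each compound at five concentrations, luminescence read-out, DSS derived from fitted concentration-response curve combining IC50 with minimum and maximum inhibition.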
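For drug sensitivity score (DSS) in combination with SL-176 in this document: cells in 384-well plates, luminescence read-out, each screening drug at five concentrations, DSS derived from the fitted concentration-response curve combining IC50 with minimum and maximum inhibition.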
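For drug sensitivity score (DSS), single drug with vehicle in this document: 384-well screen with five concentrations per compound and a luminescence read-out, DSS computed from the fitted dose-response curve combining IC50 with minimum and maximum inhibition.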

Row | Compound | drug sensitivity score [1] | drug sensitivity score [2] | drug sensitivity score [3] | drug sensitivity score [4] | drug sensitivity score [5] | drug sensitivity score [6]
1 | Nc1ccccc1NC(=O)c1ccc(CNc2nccc(-c3cccnc3)n2)cc1 [Mocetinostat] | 21.8 | 12.1 | 12.2 | 18.9 | 12 | 20
2 | Cc1nc(Nc2ncc(C(=O)Nc3c(C)cccc3Cl)s2)cc(N2CCN(CCO)CC2)n1 [Dasatinib] | 0 | 12.3 | 10.5 | 0 | 12.2 | 0
3 | Cc1cccc(-c2nn3c(c2-c2ccnc4ccc(C(N)=O)cc24)CCC3)n1 [Galunisertib] | 0 | 0 | 0 | 0 | 0 | 0
4 | CS(=O)(=O)CCNCc1ccc(-c2ccc3ncnc(Nc4ccc(OCc5cccc(F)c5)c(Cl)c4)c3c2)o1 [Lapatinib] | 0 | 0 | 0 | 0.6 | 0 | 0
5 | C[C@H]1C[C@@H](n2c(Nc3ccc(OC(F)(F)F)cc3)nc3cc(CCC(=O)O)ccc32)CC(C)(C)C1 | 0 | 0 | 0 | 14.6 | 0 | 0.4
6 | Cc1nc(=O)c2cc(CN(C)c3ccc(C(=O)N[C@@H](CCC(=O)O)C(=O)O)s3)ccc2[nH]1 [Raltitrexed] | 20.1 | 1.9 | 2.5 | 15 | 2.2 | 21.2
7 | CN(C)C(=O)c1ccc(S(=O)(=O)c2ccc(NC(=O)[C@@](C)(O)C(F)(F)F)c(Cl)c2)cc1 | 0 | 0 | 0 | 0 | 0 | 0.2
8 | CN1CCN(CCOc2cc(OC3CCOCC3)c3c(Nc4c(Cl)ccc5c4OCO5)ncnc3c2)CC1 [Saracatinib] | 6.1 | 4.8 | 4.4 | 3.7 | 4.5 | 10.7
9 | COc1ccc(COc2cc3oc(=O)c4cc(C(C)O)ccc4c3cc2OC)cc1 (configuration not stated) [Palomid-529] | 0.4 | 2.2 | 3.1 | 0 | 1.9 | 2.4
10 | Cc1cccc(CC(=O)N2CCc3c2ccc(-c2cn(C)c4ncnc(N)c24)c3F)n1 | 0 | 0.4 | 0.1 | 0 | 0 | 0
11 | CNc1nc(Nc2cn(C(C)(C)C#N)nc2C)ncc1C(F)(F)F | 0 | 0 | 0 | 0 | 0 | 0
12 | CO[C@H]1C[C@@H]2CC[C@@H](C)[C@@](O)(O2)C(=O)C(=O)N2CCCC[C@H]2C(=O)O[C@H]([C@H](C)C[C@@H]2CC[C@@H](OC(=O)C(C)(CO)CO)[C@H](OC)C2)CC(=O)[C@H](C)/C=C(\C)[C@@H](O)[C@@H](OC)C(=O)[C@H](C)C[C@H](C)/C=C/C=C/C=C/1C [Temsirolimus] | 13.7 | 11.3 | 10.8 | 6.8 | 11.6 | 12.4
13 | Cc1cc2c(F)c(Oc3ncnn4cc(OC[C@@H](C)O)c(C)c34)ccc2[nH]1 [Brivanib] | 1.5 | 0 | 0 | 1.2 | 0 | 2
14 | CC1CCC(n2c3cnccc3c3cnc(Nc4ccc5c(n4)CCN(C(=O)CO)C5)nc32)CC1 (configuration not stated) | 2.3 | 5.1 | 4.4 | 0 | 5.4 | 4
15 | CO[C@H]1C[C@@H]2CC[C@@H](C)[C@@](O)(O2)C(=O)C(=O)N2CCCC[C@H]2C(=O)O[C@H]([C@H](C)C[C@@H]2CC[C@@H](OP(C)(C)=O)[C@H](OC)C2)CC(=O)[C@H](C)/C=C(\C)[C@@H](O)[C@@H](OC)C(=O)[C@H](C)C[C@H](C)/C=C/C=C/C=C/1C [Ridaforolimus] | 7.2 | 9.8 | 9.3 | 3.8 | 11.3 | 11.5
16 | CN1CCN(C2CCC(n3cc(-c4ccc(Oc5ccccc5)cc4)c4c(N)ncnc43)CC2)CC1 (configuration not stated) | 7.7 | 10.7 | 10.6 | 7 | 12 | 5.3
17 | COc1cccc(OCCCN)c1-c1cc(Nc2cnc(C#N)cn2)n[nH]1 [Prexasertib] | 31.2 | 27.8 | 28.4 | 31 | 27.5 | 29.9
18 | COc1cc2ncnc(Oc3cccc(NC(=O)Nc4cc(C(C)(C)C(F)(F)F)on4)c3)c2cc1OC | 0 | 3.8 | 3 | 0.2 | 5.1 | 0
19 | N#CC[C@H](C1CCCC1)n1cc(-c2ncnc3[nH]ccc23)cn1 [Ruxolitinib] | 10.6 | 0.2 | 0 | 6.6 | 0 | 6.8
20 | C=C(c1ccc(C(=O)O)cc1)c1cc2c(cc1C)C(C)(C)CCC2(C)C [Bexarotene] | 11.2 | 0 | 2.4 | 4.5 | 0.4 | 4.8
21 | COc1cc2c(cc1OCCCN1CCCC1)N=C(N)C21CCC1 | 2.4 | 4.9 | 6.3 | 6.5 | 5.4 | 2.1
22 | CC(C)C[C@@H](C(=O)N[C@H](C(=O)OC1CCCC1)c1ccccc1)[C@H](O)C(=O)NO [Tosedostat] | 19.1 | 4.3 | 6.3 | 10.6 | 2.7 | 7.3
23 | CNC(=O)c1ccc(N2C(=S)N(c3cnc(C#N)c(C(F)(F)F)c3)C(=O)C23CCC3)cc1F [Apalutamide] | 0.4 | 0 | 0 | 0.3 | 0 | 0
24 | COc1cc(NS(C)(=O)=O)ccc1Nc1c2ccccc2nc2ccccc12 [Amsacrine] | 33.8 | 6.7 | 5.9 | 31.6 | 6.4 | 34.6

Row | Compound | drug sensitivity score [1] | drug sensitivity score [2] | drug sensitivity score [3] | drug sensitivity score [4] | drug sensitivity score [5] | drug sensitivity score [6]
25 | O=c1[nH]cc(F)c(=O)[nH]1 [Fluorouracil] | 9.6 | 3 | 3.4 | 9.8 | 3.7 | 11.8
26 | CC1(C)CNc2cc(NC(=O)c3cccnc3NCc3ccncc3)ccc21 [Motesanib] | 0 | 0 | 0.1 | 3.8 | 0 | 0
27 | C[C@@H]1COCCN1c1cc(C2([S@](C)(=N)=O)CC2)nc(-c2cc[nH]c3nccc2-3)n1 | 15.9 | 15.3 | 14 | 16.1 | 14.1 | 16.5
28 | CC1(C)CCC(CN2CCN(c3ccc(C(=O)NS(=O)(=O)c4ccc(NCC5CCOCC5)c([N+](=O)[O-])c4)c(Oc4cnc5[nH]ccc5c4)c3)CC2)=C(c2ccc(Cl)cc2)C1 [Venetoclax] | 5.8 | 0 | 0 | 5.8 | 0 | 8.3
29 | CN1CCN(c2ccc3nc(-c4c(N)c5c(F)cccc5[nH]c4=O)[nH]c3c2)CC1 [Dovitinib] | 0 | 0.3 | 0.4 | 0.2 | 0 | 3
30 | O=C(O)C1(C(=O)O)CCC1.[NH2-].[NH2-].[Pt+2] [Carboplatin] | 15.6 | 4.8 | 0.9 | 16.2 | 5.7 | 26.7
31 | Cc1ccc(C(=O)Nc2cccc(C(F)(F)F)c2)cc1Nc1nc(-c2cccnc2)nc2c1cnn2C | 8.1 | 8.2 | 7.8 | 5.2 | 8.4 | 6.8
32 | CN1CCC(CNc2ccc3ncc(-c4cccc(OC(F)(F)F)c4)n3n2)CC1 | 9.1 | 7.6 | 6.7 | 8.7 | 6.9 | 10.5
33 | COc1cc(CCc2cc(NC(=O)c3ccc(N4CC(C)NC(C)C4)cc3)n[nH]2)cc(OC)c1 (configuration not stated) | 0 | 0 | 0 | 0 | 0 | 3.5
34 | CC#CC(=O)N1CCC[C@H]1c1nc(-c2ccc(C(=O)Nc3ccccn3)cc2)c2c(N)nccn12 [Acalabrutinib] | 1.2 | 0 | 0 | 7.5 | 0 | 0
35 | CCCc1cc(C)[nH]c(=O)c1CNC(=O)c1cc(-c2ccnc(N3CCN(C)CC3)c2)cc2c1cnn2C(C)C | 0 | 0 | 0 | 0 | 0 | 0
36 | CC1(COc2ccc3c(c2)ncn3-c2ccc3cccc(N4CCC(N)CC4)c3n2)COC1 [Crenolanib] | 8.7 | 6.7 | 7 | 9.2 | 5.4 | 8.6
37 | COC(=O)c1ccc2c(c1)NC(=O)/C2=C(\Nc1ccc(N(C)C(=O)CN2CCN(C)CC2)cc1)c1ccccc1 [Nintedanib] | 4.9 | 4.8 | 7.6 | 6.8 | 7.6 | 8.2
38 | CNC(=O)c1cc(Oc2ccc(NC(=O)Nc3ccc(Cl)c(C(F)(F)F)c3)cc2)ccn1 [Sorafenib] | 0 | 0 | 0 | 0 | 0 | 0
39 | O=C(NC1CCNCC1)c1n[nH]cc1NC(=O)c1c(Cl)cccc1Cl | 18.1 | 14.8 | 15.4 | 17.5 | 15.3 | 20.2
40 | Cc1sc2c(c1C)C(c1ccc(Cl)cc1)=N[C@@H](CC(=O)NCCCCNC(=O)COc1cccc3c1C(=O)N(C1CCC(=O)NC1=O)C3=O)c1nnc(C)n1-2 (some centres not stated) | 20.1 | 1.2 | 2 | 20.2 | 2.3 | 20.3
41 | Cc1cc(Nc2cc(CN3CCOCC3)c3nc(C)c(Cc4ccc(Cl)cc4F)n3n2)n[nH]1 [Gandotinib] | 18.9 | 5.6 | 5.7 | 18 | 5.9 | 19.7
42 | C[C@@H]1CCN(C(=O)CC#N)C[C@@H]1N(C)c1ncnc2[nH]ccc12 [Tofacitinib] | 11 | 0.1 | 0 | 0 | 0.1 | 0
43 | CN[C@@H](C)C(=O)N[C@H](C(=O)N1CCC[C@H]1c1nc(C(=O)c2ccc(F)cc2)cs1)C1CCCCC1 | 0 | 4.4 | 3.2 | 0 | 3 | 0
44 | CN(C)Cc1ccc(S(=O)(=O)n2ccc(/C=C/C(=O)NO)c2)cc1 [Resminostat] | 16.5 | 12.8 | 11.2 | 15.7 | 12.5 | 17.8
45 | CC1(C)NC(=O)N(c2ccc([N+](=O)[O-])c(C(F)(F)F)c2)C1=O [Nilutamide] | 0.3 | 0 | 0.6 | 0 | 0.2 | 0
46 | O=C(Nc1cccc(Nc2ncc(Br)c(NCCc3cnc[nH]3)n2)c1)N1CCCC1 | 17 | 7.7 | 7.6 | 16.9 | 8.8 | 17.1
47 | CC1(C)OCCn2c1nc1c(N3CCOCC3)nc(-c3cnc(N)nc3)nc12 | 12.2 | 14 | 17.8 | 11.9 | 14.7 | 16.6
